In patent publication US20220389066A1, “POLYPEPTIDES” (Affibody AB, priority 2019, published 2022):
Numbering of substitutions follows the chain as printed.

T1: HMGB1(disulfide) (Rattus norvegicus, UniProt P63159)
T1 construct: purchased HMGBiotech Srl, Milano, Italy
T1 sequence (P63159 1-215): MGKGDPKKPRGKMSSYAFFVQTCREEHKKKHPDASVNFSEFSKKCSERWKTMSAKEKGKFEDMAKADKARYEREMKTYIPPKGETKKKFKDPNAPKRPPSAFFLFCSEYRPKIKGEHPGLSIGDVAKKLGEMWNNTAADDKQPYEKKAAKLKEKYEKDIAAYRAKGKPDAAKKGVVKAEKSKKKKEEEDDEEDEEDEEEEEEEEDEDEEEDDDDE

T2: boxA(disulfide) (Homo sapiens, UniProt P09429)
T2 construct: purchased HMGBiotech Srl, Milano, Italy
T2 sequence (P09429 1-89): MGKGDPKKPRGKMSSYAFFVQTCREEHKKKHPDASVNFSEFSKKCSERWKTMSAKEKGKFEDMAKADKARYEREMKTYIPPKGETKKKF

T3: HMGB1(red) (Rattus norvegicus, UniProt P63159)
T3 construct: purchased HMGBiotech Srl, Milano, Italy
T3 sequence (P63159 1-215): T1 sequence (P63159 1-215)

B1: ZA3914: A-box binding Z-ABD polypeptide, ZH 28-ASGS-PP013 (protein)
chain: AEAKYAKEAWQAMEEILWLPNLTNTQQLAFIYKLEDDPSQSSELLSEAKKLNDSQAPKASGSLAEAKEAANAELDSYGVSDFYKRLIDKAKTVEGVEALKDAILAALP
modifications: Engineered HMGB1 binding polypeptide
B2: ZA3975: B-box binding Z-ABD polypeptide, ZH 32-ASGS-PP013 (protein)
chain: AEAKYAKEAWLAEQEIWQLPNLTEAQFQAFILKLIDDPSQSSELLSEAKKLNDSQAPKASGSLAEAKEAANAELDSYGVSDFYKRLIDKAKTVEGVEALKDAILAALP
modifications: Engineered HMGB1 binding polypeptide
B3: ZZA4011: heterodimer ZH01/ZH31, format Z(boxA)-L2-Z(boxB)-ABD (protein)
chain: VDAKYAKEDWDAFWEIIWLPNLTDAQQRAFIYKLEDDPSQSSELLSEAKKLNDSQAPKGAPGGGGSTSVDAKYAKEAWLAEQEIWQLPNLTEAQFQAFILKLIDDPSQSSELLSEAKKLNDSQAPKASGSLAEAKEAANAELDSYGVSDFYKRLIDKAKTVEGVEALKDAILAALP
modifications: Engineered HMGB1 binding polypeptide
notes: heterodimer ZH01/ZH31, format Z(boxA)-L2-Z(boxB)-ABD
B4: ZZA4012: heterodimer ZH01/ZH31, format Z(boxB)-L1-Z(boxA)-ABD (protein)
chain: VDAKYAKEAWLAEQEIWQLPNLTEAQFQAFILKLIDDPSQSSELLSEAKKLNDSQAPKGAPGGGGSGGGGSGGGGSTSVDAKYAKEDWDAFWEIIWLPNLTDAQQRAFIYKLEDDPSQSSELLSEAKKLNDSQAPKASGSLAEAKEAANAELDSYGVSDFYKRLIDKAKTVEGVEALKDAILAALP
modifications: Engineered HMGB1 binding polypeptide
notes: heterodimer ZH01/ZH31, format Z(boxB)-L1-Z(boxA)-ABD
B5: ZZA4013: heterodimer ZH01/ZH31, format Z(boxB)-L2-Z(boxA)-ABD (protein)
chain: VDAKYAKEAWLAEQEIWQLPNLTEAQFQAFILKLIDDPSQSSELLSEAKKLNDSQAPKGAPGGGGSTSVDAKYAKEDWDAFWEIIWLPNLTDAQQRAFIYKLEDDPSQSSELLSEAKKLNDSQAPKASGSLAEAKEAANAELDSYGVSDFYKRLIDKAKTVEGVEALKDAILAALP
modifications: Engineered HMGB1 binding polypeptide
notes: heterodimer ZH01/ZH31, format Z(boxB)-L2-Z(boxA)-ABD
B6: ZAZ4015: heterodimer ZH01/ZH31, format Z(boxA)-ABD-L3-Z(boxB) (protein)
chain: VDAKYAKEDWDAFWEIIWLPNLTDAQQRAFIYKLEDDPSQSSELLSEAKKLNDSQAPKASGSLAEAKEAANAELDSYGVSDFYKRLIDKAKTVEGVEALKDAILAALPGTGGGGSVDAKYAKEAWLAEQEIWQLPNLTEAQFQAFILKLIDDPSQSSELLSEAKKLNDSQAPK
modifications: Engineered HMGB1 binding polypeptide
B7: ZZA4054: homodimer of ZH27, format Z(boxA)-L2-Z(boxA)-ABD (protein)
chain: AEAKYAKEDWDAFWEIIWLPNLTDAQQRAFIYKLEDDPSQSSELLSEAKKLNDSQAPKGAPGGGGSTSAEAKYAKEDWDAFWEIIWLPNLTDAQQRAFIYKLEDDPSQSSELLSEAKKLNDSQAPKASGSLAEAKEAANAELDSYGVSDFYKRLIDKAKTVEGVEALKDAILAALP
modifications: Engineered HMGB1 binding polypeptide
notes: homodimer of ZH27, format Z(boxA)-L2-Z(boxA)-ABD
B8: ZAZ4057: homodimeric A-box binding polypeptide of ZH27 in fusion with ABD, linker L3 (protein)
chain: AEAKYAKEDWDAFWEIIWLPNLTDAQQRAFIYKLEDDPSQSSELLSEAKKLNDSQAPKASGSLAEAKEAANAELDSYGVSDFYKRLIDKAKTVEGVEALKDAILAALPGTGGGGSAEAKYAKEDWDAFWEIIWLPNLTDAQQRAFIYKLEDDPSQSSELLSEAKKLNDSQAPK
modifications: Engineered HMGB1 binding polypeptide
B9: ZZA4261: heterodimer ZH27/ZH32, format Z(boxA)-L2-Z(boxB)-ABD (protein)
chain: B3 chain with V1A, D2E, V69A, D70E
modifications: Engineered HMGB1 binding polypeptide
notes: heterodimer ZH27/ZH32, format Z(boxA)-L2-Z(boxB)-ABD
B10: ZZA4262: heterodimer ZH27/ZH32, format Z(boxB)-L1-Z(boxA)-ABD (protein)
chain: B4 chain with V1A, D2E, V79A, D80E
modifications: Engineered HMGB1 binding polypeptide
notes: heterodimer ZH27/ZH32, format Z(boxB)-L1-Z(boxA)-ABD

Columns and labels:
HMGB1(disulfide) [1] = target: T1, HMGB1(disulfide); assay: Biacore kinetic analysis, Z-ABD captured on HSA, HMGB1(disulfide); assay type: binding; conditions: analyte HMGB1(disulfide); non-reducing; heterogeneous ligand parallel reactions model
Description: (§1) Biacore kinetic and specificity analysis: Kinetic constants (ka and kd) and affinities (KD) for HMGB1(red), HMGB1(disulfide), boxA(disulfide) and GST-boxA(red) were determined for the A-box binding Z-ABD polypeptides ZA3812 (SEQ ID NO:35) and ZA3914 (SEQ ID NO:36) (see Example 2), as well as for the HMGB1(red) interaction with the B-box binding polypeptide ZA3975, using a Biacore 2000 instrument (GE Healthcare).
(§2) The experiment was performed as a capture assay, in which human serum albumin (HSA, Novozymes, cat. no. 230-005) was immobilized on the carboxylated dextran layer of one CM5 chip surface (GE Healthcare, cat. no. BR100012) to immobilization levels of approximately 3000 RU. The immobilization was performed using amine coupling chemistry according to the manufacturer's protocol and using HBS-EP (GE Healthcare, cat. no. BR100188) as running buffer. In a first set of experiments, Z-ABD polypeptides were analyzed under non-reducing conditions. One flow cell surface was activated and deactivated for use as blank during ligand and analyte injections. In the kinetic experiment, HBS-EP was used as running buffer and the flow rate was 30 μl/min. The ligand, i.e. the Z-ABD polypeptide, was diluted in HBS-EP buffer to a concentration of 30 nM and injected during 2 min.
(§3) The analyte, i.e. HMGB1(disulfide) or boxA(disulfide), was diluted in HBS-EP buffer within a concentration range of 2.5 to 640 nM and injected during 6 min, followed by dissociation in running buffer for 12 min. After dissociation, the surfaces were regenerated with one injection of 10 mM HCl.
(§4) Kinetic constants were calculated from sensorgrams using the BiaEvaluation software 4.1 (GE Healthcare). The Langmuir 1:1 model was used for fitting of all data except for HMGB1(disulfide), where a model for heterogeneous ligand parallel reactions better represented the experimental data and bulk was set to zero. Double referencing was applied to all data prior to kinetic fit, i.e. responses obtained from a blank surface and from a blank cycle where buffer was injected instead of analyte were subtracted.

boxA(disulfide) = target: T2, boxA(disulfide); assay: Biacore kinetic analysis, Z-ABD captured on HSA, boxA(disulfide); assay type: binding; conditions: analyte boxA(disulfide); non-reducing; 1:1 model
Description: as §1, §2, §3, §4

HMGB1(red) [2] = target: T3, HMGB1(red); assay: Biacore kinetic analysis, Z-ABD captured on HSA, HMGB1(red); assay type: binding; conditions: analyte HMGB1(red); reducing conditions (DTT); 1:1 model
Description: as §1, §2
(§5) In a second set of experiments, ZA3812 and ZA3914 were analyzed under reducing conditions where 2 mM DTT was included in the sample and running buffer. Analyses were performed as described above, except that HMGB1(red) and GST-boxA(red) were used as targets.
In a third experiment, ZA3975 was analyzed for binding to HMGB1(red) under reduced conditions (1.5 mM DTT included in the sample and running buffer). The ligand ZA3975 was diluted in HBS-EP buffer to a concentration of 100 nM and injected during 4 min. The analyte, HMGB1(red), was diluted in HBS-EP buffer to a concentration within the range of 8.3 to 675 nM and injected during 4 min, followed by dissociation in running buffer for 20 min. After dissociation, the surfaces were regenerated with three injections of 10 mM HCl.
as §4

GST-boxA(red) = target: T4, GST-boxA(red) (Homo sapiens, UniProt P09429); assay: Biacore kinetic analysis, Z-ABD captured on HSA, GST-boxA(red); assay type: binding; conditions: analyte GST-boxA(red); 2 mM DTT; 1:1 model
T4 construct: purchased HMGBiotech Srl, Milano, Italy
T4 sequence (P09429 with tags, fused parts or gaps): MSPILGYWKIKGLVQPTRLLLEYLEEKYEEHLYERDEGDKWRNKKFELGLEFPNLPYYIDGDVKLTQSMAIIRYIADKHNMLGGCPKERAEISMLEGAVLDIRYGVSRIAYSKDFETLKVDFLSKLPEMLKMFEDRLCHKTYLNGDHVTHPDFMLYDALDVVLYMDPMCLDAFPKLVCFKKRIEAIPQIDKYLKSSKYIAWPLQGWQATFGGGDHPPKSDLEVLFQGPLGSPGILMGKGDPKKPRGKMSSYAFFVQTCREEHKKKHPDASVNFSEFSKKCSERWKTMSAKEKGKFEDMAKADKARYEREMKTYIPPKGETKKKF
Description: as §1, §2, §5, §4

HMGB1(red) [3] = target: T3, HMGB1(red); assay: Attana A200 biosensor binding analysis, HMGB1(red); conditions: relevant kd (the most represented in %); 2 mM DTT; captured on HSA; 1:1 or 1:2 model
Description: (§6) Binding analysis: The Attana A200® biosensor was used to characterize interactions between the dimeric polypeptides (SEQ ID NO:38-48) and HMGB1(red) under reducing conditions and/or HMGB1(disulfide) under non-reducing conditions. The monomeric ZA3812 (SEQ ID NO:35) was included for comparison. The experiment was performed as a capture assay, in which HSA was immobilized on Attana's sensor chip Low-NonSpecific-Binding (LNB). Immobilization was performed using amine coupling. The instrument has two sensor surfaces and HSA was immobilized on both surfaces. Around 110 Hz of HSA was stably immobilized on the surfaces.
(§7) In the kinetic experiment, HBS-EP+/−2 mM DTT was used as running buffer and the flow rate was 25 μl/min at 22° C. In each cycle, one polypeptide was tested against one concentration of HMGB1. […] The analyte HMGB1(reduced) was diluted in HBS-EP+2 mM DTT within a concentration range of 1.33 to 21.4 μg/ml, and the analyte HMGB1(disulfide) was diluted in HBS-EP buffer within a concentration range of 0.62 to 10 μg/ml. Both analytes were subsequently injected for 84 s over both channel A and B, where channel B was used as a blank surface for curve subtraction. Buffer injections were also made for surface subtractions. After dissociation, the surfaces were regenerated with a 30 s injection of 100 mM HCl followed by a 30 s injection of 20 mM NaOH. Data was collected by Attester Software and subsequently processed in the Evaluation Software. To calculate the kinetic parameters (ka and kd) and affinity constant (KD), the experimental data were fitted using a 1:1 or a 1:2 binding model.

HMGB1(disulfide) [4] = target: T1, HMGB1(disulfide); assay: Attana A200 biosensor binding analysis, HMGB1(disulfide); conditions: relevant kd (the most represented in %); non-reducing; captured on HSA; 1:1 or 1:2 model
Description: as §6, §7

| Molecule | kd HMGB1 (red) (HMGB1(red) [3]) | kd HMGB1 (disulfide) (HMGB1(disulfide) [4]) | also measured |
| --- | --- | --- | --- |
| B1 |  |  | ka1 (HMGB1(disulfide) [1]): 180000 M⁻¹ s⁻¹; ka2 (HMGB1(disulfide) [1]): 14000 M⁻¹ s⁻¹; kd1 (HMGB1(disulfide) [1]): 0.025 s⁻¹; kd2 (HMGB1(disulfide) [1]): 9.5e-05 s⁻¹; ka1 (boxA(disulfide)): 170000 M⁻¹ s⁻¹; kd1 (boxA(disulfide)): 0.00015 s⁻¹; ka1 (HMGB1(red) [2]): 180000 M⁻¹ s⁻¹; kd1 (HMGB1(red) [2]): 0.0011 s⁻¹; ka1 (GST-boxA(red)): 120000 M⁻¹ s⁻¹; kd1 (GST-boxA(red)): 0.0001 s⁻¹ |
| B2 |  |  | ka1 (HMGB1(red) [2]): 2.5e+06 M⁻¹ s⁻¹; kd1 (HMGB1(red) [2]): 0.00028 s⁻¹ |
| B3 | 0.00049 s⁻¹ | 0.0011 s⁻¹ |  |
| B4 | 0.00046 s⁻¹ | 0.00045 s⁻¹ |  |
| B5 | 0.00042 s⁻¹ | 0.00066 s⁻¹ |  |
| B6 | 0.0004 s⁻¹ | 0.0013 s⁻¹ |  |
| B7 | 0.013 s⁻¹ | 0.00063 s⁻¹ |  |
| B8 | 0.0096 s⁻¹ | 0.00065 s⁻¹ |  |
| B9 |  | 0.0014 s⁻¹ |  |
| B10 |  | 0.00098 s⁻¹ |  |
